{"source": "PubChem BioAssay AID1476", "about": "(National Center for Advancing Translational Sciences (NCATS), 2009)", "note": "In all, about 200,000 compounds went through this assay and about 4,500 (2.2%) were called active. The shares of active, inactive and inconclusive entries below differ from those in the screen. Calls come from the whole dose curve; as a rule, active = well fitted inhibition curve with a large enough effect; inconclusive = small, poorly fitted or top-dose-only effect, or effect the other way; inactive = flat fitted curve, though single readings scatter. A potency beside an inconclusive call is a rough fit, not a confirmed value. Potency is the fitted concentration of half-maximal effect; tags give direction and shape of the fitted curve."}
{"target": "Cruzipain (Trypanosoma cruzi) (UniProt P25779)", "sequence (P25779 whole entry, looked up)": "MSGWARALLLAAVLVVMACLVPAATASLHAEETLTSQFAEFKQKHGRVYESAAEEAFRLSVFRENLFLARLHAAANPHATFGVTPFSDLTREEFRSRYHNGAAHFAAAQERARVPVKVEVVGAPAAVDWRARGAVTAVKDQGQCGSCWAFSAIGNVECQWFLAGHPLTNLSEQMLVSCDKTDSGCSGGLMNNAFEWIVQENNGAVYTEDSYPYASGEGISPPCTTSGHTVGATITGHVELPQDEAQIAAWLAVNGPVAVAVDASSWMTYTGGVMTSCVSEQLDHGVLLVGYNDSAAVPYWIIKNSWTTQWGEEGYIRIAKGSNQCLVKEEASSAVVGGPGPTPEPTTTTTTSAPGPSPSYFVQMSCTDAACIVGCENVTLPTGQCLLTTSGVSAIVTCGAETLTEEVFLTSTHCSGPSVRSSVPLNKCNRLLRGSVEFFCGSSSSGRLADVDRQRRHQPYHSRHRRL", "assay": "qHTS Assay for Promiscuous and Specific Inhibitors of Cruzain (without detergent); note: nearly all actives have a fitted effect of over 40% in size;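 for max response, negative = inhibition: plate controls were enzyme without inhibitor for no effect and buffer without enzyme for full effect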", "details": "purified cruzain, Z-FR-AMC fluorescence, no detergent", "in_short": "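Purified cruzain at 1.5 nM, pre-incubated 15 min with compound at room temperature in 100 mM sodium acetate pH 5.5, 5 mM DTT, 0.00005% Triton X-100. Reaction started with 2 uM Z-FR-AMC; AMC fluorescence increase over 60 s gives rate.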"}
{"smiles": "COc1ccc(NC(=O)Cn2cnc3c(cnn3-c3ccc(C)c(C)c3)c2=O)c(OC)c1", "Potency": "inconclusive: 20 µM [activator, partial curve]"}
{"smiles": "O=S(=O)(c1cccc(-c2cn3cccnc3n2)c1)N1CCOCC1", "Potency": "inconclusive: 25.1 µM [activator, single point]"}
{"smiles": "O=C(NCc1cccs1)c1ccc2c(c1)N(Cc1cccc(F)c1)C(=O)c1ccccc1S2", "Potency": "inconclusive: 39.8 µM [inhibitor, single point]"}
{"smiles": "C=CCN1C(=O)/C(=C\\c2ccc(Cl)cc2)N=C1SCC(=O)NC1CCCCC1", "Potency": "active: 10 µM"}
{"smiles": "COc1cccc(/C=N/NC(=O)CNC(=O)C2COc3ccccc3O2)c1O", "note": "(configuration not stated)", "max response, negative = inhibition": "inactive: -2.92%"}
{"smiles": "CCOC(=O)c1nn(-c2cccc(OC)c2)c2nc(Nc3ccccc3)cc(=O)n12", "Potency": "inconclusive: 31.6 µM [activator, partial curve]"}
{"smiles": "COC(=O)c1c(NC(=O)Cc2coc3cc(C)ccc23)sc2c1CCC2", "Potency": "inconclusive: 31.6 µM [inhibitor, single point]"}
{"smiles": "O=C(NC(=S)Nc1ccccc1N1CCOCC1)c1ccco1", "max response, negative = inhibition": "inactive: -3.8%"}
{"smiles": "CCOC(=O)N1CCN(C(=O)CN(c2ccccc2F)S(=O)(=O)c2ccc(C)cc2)CC1", "Potency": "inconclusive: 31.6 µM [activator, single point]"}
{"smiles": "O=c1c(CCc2ccccc2)nc2cnc(N3CCOCC3)nc2n1Cc1cccs1", "Potency": "inconclusive: 39.8 µM [activator, single point]"}
{"smiles": "Oc1ccc(-c2csc(-c3c[nH]c4ccccc34)n2)c(O)c1", "Potency": "inconclusive: 31.6 µM [inhibitor, single point]"}
{"smiles": "COc1ccc(OC)c(CNC(=O)c2ccc3c(c2)c(C)c(C)n3Cc2ccc(Cl)cc2)c1", "Potency": "active: 7.94 µM"}
{"smiles": "Cc1nn(-c2ccc(N3CCCCC3)nn2)c(C)c1CCC(=O)Nc1ccc(F)cc1F", "max response, negative = inhibition": "inactive: 23%"}
{"smiles": "COc1cc([N+](=O)[O-])ccc1NC(=O)CC1SC(=Nc2ccc(F)cc2)N(CCC2=CCCCC2)C1=O", "note": "(configuration not stated)", "Potency": "active: 10 µM"}
{"smiles": "COc1cc(OC)c(C2CC(=O)N3CN(c4ccccc4C)CSC3=C2C#N)cc1OC", "note": "(configuration not stated)", "max response, negative = inhibition": "inactive: -21.9%"}
{"smiles": "COc1cc(OC)cc(N2C(=O)N(Cc3ccc(C(C)(C)C)cc3)c3ccccc3S2(=O)=O)c1", "Potency": "active: 3.98 µM"}
{"smiles": "Clc1nc(Cl)nc(N(c2ccccc2)c2ccccc2)n1", "max response, negative = inhibition": "inactive: -10%"}
{"smiles": "O=C(O)c1sc2cc(C(F)(F)F)cnc2c1-c1ccccc1", "Potency": "active: 15.8 µM"}
{"smiles": "CCCCOc1ccc(C(=O)N/N=C/c2cn[nH]c2-c2ccc(OC)c(OC)c2)cc1", "Potency": "inconclusive: 25.1 µM [activator, partial curve]"}
{"smiles": "COc1cccc(C(=O)N/N=c2\\oc3c(OC)cccc3cc2C(=O)NCc2ccccc2)c1", "Potency": "inconclusive: 31.6 µM [activator, single point]"}
{"smiles": "COc1ccc2ncc(S(=O)(=O)c3ccccc3)c(N3CCN(c4ccccc4)CC3)c2c1", "Potency": "inconclusive: 25.1 µM [inhibitor, single point]"}
{"smiles": "N#Cc1cccc(-c2nc(NCCN3CCOCC3)c3ccccc3n2)c1", "max response, negative = inhibition": "inactive: 7.01%"}
{"smiles": "COc1ccc(S(=O)(=O)Nc2ccc3oc4c(c3c2)CCCC4)cc1", "Potency": "inconclusive: 39.8 µM [inhibitor, single point]"}
{"smiles": "CCCCNC(=O)CSc1nc2n[nH]c(C)c2c(=N)n1-c1cccc(Cl)c1C", "Potency": "inconclusive: 31.6 µM [inhibitor, single point]"}
{"smiles": "Cc1ccccc1C(=O)NC(=S)Nc1sc2c(c1C#N)CCC(C)C2", "note": "(configuration not stated)", "Potency": "active: 15.8 µM"}
{"smiles": "FC(F)(F)C1=NC(C(F)(F)F)=NP(N2CCOCC2)(N2CCOCC2)=N1", "Potency": "inconclusive: 39.8 µM [activator, single point]"}
{"smiles": "CCOC(=O)c1c(NC(=O)COC(=O)Cn2c(C)nc3ccccc32)sc2c1CCCC2", "Potency": "inconclusive: 39.8 µM [activator, single point]"}
{"smiles": "COc1ccc(S(=O)(=O)N2CCN(Cc3ccc(Cl)cc3)CC2)cc1", "max response, negative = inhibition": "inactive: -2.64%"}
{"smiles": "CC(C)Cn1cc(C(=O)N2CCC3(CC2)OCCO3)c2c3ccccc3n(C)c2c1=O", "Potency": "inconclusive: 31.6 µM [activator, single point]"}
{"smiles": "O=C(Nc1ccc2c(c1)OCO2)c1cc2ncc(Br)cn2n1", "Potency": "inconclusive: 31.6 µM [inhibitor, single point]"}
{"smiles": "COc1cccc(-c2nc(SCC(=O)Nc3ccc4c(c3)OCCO4)c(-c3ccccc3)[nH]2)c1", "Potency": "inconclusive: 25.1 µM [inhibitor, partial curve, poor fit]"}
{"smiles": "Cc1ccc(-c2nc(SCC(=O)N(C)C3CCS(=O)(=O)C3)[nH]c2-c2ccc(C)cc2)cc1", "note": "(configuration not stated)", "Potency": "inconclusive: 31.6 µM [activator, single point]"}
{"smiles": "Oc1ccc(Cl)cc1C1=NNC(c2ccc(Cl)cc2)C1", "note": "(configuration not stated)", "Potency": "inconclusive: 31.6 µM [inhibitor, single point]"}
{"smiles": "CC(C)CC(NC(=O)C(CC(C)C)NC(=O)OC(C)(C)C)C(N)=O", "note": "(configuration not stated)", "Potency": "active: 15.8 µM"}
{"smiles": "Oc1ccccc1C1=Nc2nc3ccccc3n2C(c2ccccc2)C1", "note": "(configuration not stated)", "Potency": "active: 25.1 µM"}
{"smiles": "COc1ccc(CCNC(=O)c2c(O)nc3c(C)cccn3c2=O)cc1", "Potency": "inconclusive: 39.8 µM [activator, single point]"}
{"smiles": "COc1ccc(C(=O)N2c3ccccc3C(C)(c3ccc(Cl)cc3)CC2(C)C)cc1", "note": "(configuration not stated)", "Potency": "inconclusive: 31.6 µM [inhibitor, single point]"}
{"smiles": "Cc1ccc(-c2onc(C)c2C)cc1S(=O)(=O)N1c2ccccc2CC1C", "note": "(configuration not stated)", "max response, negative = inhibition": "inactive: -11.7%"}
{"smiles": "c1ccc(Cc2nnc3sc(-c4cccs4)nn23)cc1", "Potency": "inconclusive: 31.6 µM [inhibitor, single point]"}
{"smiles": "N#Cc1nc(-c2ccc(OCc3ccccc3)cc2)oc1N1CCC(C(N)=O)CC1", "Potency": "inconclusive: 25.1 µM [activator, partial curve]"}
{"smiles": "O=S1(=O)c2ccccc2N(Cc2cccc(C(F)(F)F)c2)c2ccccc21", "Potency": "inconclusive: 15.8 µM [inhibitor, partial curve, poor fit]"}
{"smiles": "CC1CCCCN1S(=O)(=O)c1ccc(C(=O)Nc2sc3c(c2C(N)=O)CC(C)(C)NC3(C)C)cc1", "note": "(configuration not stated)", "max response, negative = inhibition": "inactive: 9.67%"}
